Laboratory results taken from a collection of fitness landscapes (doi:10.1016/j.celrep.2020.107928).
The full ranking holds about 81,000 sequences; the median of “one-hybrid fitness for binding parS DNA” is about -0.17, and the highest 2% start at about 0.51. This is one part of the list.

B1: Caulobacter ParB omega fusion; a variant is named by its letters at X, in order, B8GW30 (parent)
chain: MESVVVGEPGMSEGRRGLGRGLSALLGEVDAAPAQAPGEQLGGSREAPIEILQRNPDQPRRTFREEDLEDLSNSIREKGVLQPILVRPSPDTAGEYQIVAGERAWRAAQRAGLKTVPIMVRELDDLAVLEIGIIENVQRADLNVLEEALSYKVLMEKFERTQENIAQTIGKSXSHVANXMRLLXLPDEVQSYLVSGELTAXHARAIAAAADPVALAKQIIEGGLSVRETEALARKAPNLSAGKSKGGRPPRVKDTDTQALESDLSSVLGLDVSIDHRGSTGTLTITYATLEQLDDLCNRLTRGI

Variants of: B1
Test: one-hybrid fitness for binding parS DNA (scaled: cognate 1, non-cognate 0); higher = stronger binding
Conditions: with parS DNA site
Method in brief: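 Pre- and post-selection plasmids were Illumina-sequenced, three replicate libraries were pooled, and any variant with under 10 reads was removed. The libraries were Caulobacter ParB with four specificity codons randomised, selected in E. coli USO through a HIS3 reporter whose site is 19 bp from the promoter. Cells grew 48 hours at 37°C on M9 without histidine, with 0.1 mM IPTG and 5 mM 3-AT. Fitness is the log change in variant-to-wild-type read ratio, rescaled against cognate and non-cognate.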

Row | Variant | one-hybrid fitness for binding parS DNA
1 | LFFR | ≤ 0.2
2 | SCYR | ≤ 0.2
3 | ETLV | ≤ 0.2
4 | GATK | ≤ 0.2
5 | PSIV | ≤ 0.2
6 | YSRT | ≤ 0.2
7 | YAAM | ≤ 0.2
8 | ENKT | ≤ 0.2
9 | WYYT | ≤ 0.2
10 | VNSD | ≤ 0.2
11 | QHGC | ≤ 0.2
12 | IVTK | ≤ 0.2
13 | TFWS | ≤ 0.2
14 | QAAF | ≤ 0.2
15 | VPPL | ≤ 0.2
16 | QQVT | ≤ 0.2
17 | RMAE | ≤ 0.2
18 | SCRM | ≤ 0.2
19 | NVCR | ≤ 0.2
20 | AILA | ≤ 0.2
21 | QVTG | ≤ 0.2
22 | STAI | ≤ 0.2
23 | TRTY | ≤ 0.2
24 | AQHY | ≤ 0.2
25 | YGQV | ≤ 0.2

Row | Variant | one-hybrid fitness for binding parS DNA
26 | HIQS | ≤ 0.2
27 | HNER | ≤ 0.2
28 | GMMS | ≤ 0.2
29 | TSLV | ≤ 0.2
30 | CLCA | ≤ 0.2
31 | ADGL | ≤ 0.2
32 | QTSG | ≤ 0.2
33 | EQCE | ≤ 0.2
34 | QVHT | ≤ 0.2
35 | RNRM | 0.345
36 | TDQG | ≤ 0.2
37 | FMIS | ≤ 0.2
38 | QRIC | ≤ 0.2
39 | NILN | ≤ 0.2
40 | SPQI | ≤ 0.2
41 | EPET | ≤ 0.2
42 | TNGS | ≤ 0.2
43 | AHYS | ≤ 0.2
44 | PAFW | ≤ 0.2
45 | ACLG | ≤ 0.2
46 | CMNF | ≤ 0.2
47 | MVRL | ≤ 0.2
48 | PLIC | ≤ 0.2
49 | ATFW | ≤ 0.2
50 | NARA | ≤ 0.2

Row | Variant | one-hybrid fitness for binding parS DNA
51 | ARVN | ≤ 0.2
52 | RCSS | 0.978
53 | HMNI | ≤ 0.2
54 | QEHI | ≤ 0.2
55 | DREK | ≤ 0.2
56 | FTPM | ≤ 0.2
57 | PCWL | ≤ 0.2
58 | YHLG | ≤ 0.2
59 | ALKT | ≤ 0.2
60 | HDHC | ≤ 0.2
61 | DNFR | ≤ 0.2
62 | SFAW | ≤ 0.2
63 | PDRS | ≤ 0.2
64 | SMGL | ≤ 0.2
65 | RWVD | ≤ 0.2
66 | PITG | ≤ 0.2
67 | WCRC | ≤ 0.2
68 | DNAR | ≤ 0.2
69 | PRSL | ≤ 0.2
70 | GGKT | ≤ 0.2
71 | WRRM | ≤ 0.2
72 | LHDI | ≤ 0.2
73 | QFHP | ≤ 0.2
74 | WTLG | ≤ 0.2
75 | MLYC | ≤ 0.2

Row | Variant | one-hybrid fitness for binding parS DNA
76 | NAMV | ≤ 0.2
77 | LWCV | ≤ 0.2
78 | KPES | ≤ 0.2
79 | PSHM | ≤ 0.2
80 | PQER | ≤ 0.2
81 | HLWL | ≤ 0.2
82 | SSHV | ≤ 0.2
83 | MGSL | ≤ 0.2
84 | LNYS | ≤ 0.2
85 | GQPY | ≤ 0.2
86 | SITV | ≤ 0.2
87 | YWST | ≤ 0.2
88 | EMVR | ≤ 0.2
89 | LLML | ≤ 0.2
90 | HGTR | ≤ 0.2
91 | WVPF | ≤ 0.2
92 | NTTA | ≤ 0.2
93 | GLDT | ≤ 0.2
94 | NQHS | ≤ 0.2
95 | HMLS | ≤ 0.2
96 | FLNV | ≤ 0.2
97 | HSPC | ≤ 0.2
98 | HNAA | ≤ 0.2
99 | WSDV | ≤ 0.2
100 | QRCH | ≤ 0.2

Row | Variant | one-hybrid fitness for binding parS DNA
101 | RIAT | 0.885
102 | PTML | ≤ 0.2
103 | SKRF | ≤ 0.2
104 | PVHS | ≤ 0.2
105 | YFRR | ≤ 0.2
106 | PPWG | ≤ 0.2
107 | DIYD | ≤ 0.2
108 | NNPD | ≤ 0.2
109 | APRY | ≤ 0.2
110 | KRGW | ≤ 0.2
111 | VVVY | ≤ 0.2
112 | QWYG | ≤ 0.2
113 | YHSF | ≤ 0.2
114 | RKYP | ≤ 0.2
115 | PISA | ≤ 0.2
116 | SIYS | ≤ 0.2
117 | QFEL | ≤ 0.2
118 | WRPR | ≤ 0.2
119 | QNPT | ≤ 0.2
120 | GVES | ≤ 0.2
121 | NTAT | ≤ 0.2
122 | LFQT | ≤ 0.2
123 | VQRM | ≤ 0.2
124 | LYDS | ≤ 0.2
125 | LITT | ≤ 0.2

Row | Variant | one-hybrid fitness for binding parS DNA
126 | QYRA | ≤ 0.2
127 | MGSC | ≤ 0.2
128 | SRGL | ≤ 0.2
129 | KLYT | ≤ 0.2
130 | LQKW | ≤ 0.2
131 | GCNG | ≤ 0.2
132 | SGIV | ≤ 0.2
133 | WLCT | ≤ 0.2
134 | PAKP | ≤ 0.2
135 | GQHV | 0.21
136 | GDSR | ≤ 0.2
137 | FSDE | ≤ 0.2
138 | GEMR | ≤ 0.2
139 | SCFP | ≤ 0.2
140 | KRLM | ≤ 0.2
141 | QSTH | ≤ 0.2
142 | MILM | ≤ 0.2
143 | GKFS | ≤ 0.2
144 | WRPD | ≤ 0.2
145 | LSWC | ≤ 0.2
146 | GVPV | ≤ 0.2
147 | LSTA | ≤ 0.2
148 | PGPN | ≤ 0.2
149 | VANM | ≤ 0.2
150 | QNTA | ≤ 0.2

Row | Variant | one-hybrid fitness for binding parS DNA
151 | CAHG | ≤ 0.2
152 | GMYC | ≤ 0.2
153 | VCST | ≤ 0.2
154 | IIES | ≤ 0.2
155 | DTQY | ≤ 0.2
156 | RMWM | 0.344
157 | SGRD | ≤ 0.2
158 | DTVM | ≤ 0.2
159 | RPRA | ≤ 0.2
160 | LRSD | ≤ 0.2
161 | AHDL | ≤ 0.2
162 | FHKP | ≤ 0.2
163 | RVHP | ≤ 0.2
164 | LTSQ | ≤ 0.2
165 | WMHA | ≤ 0.2
166 | LQYR | ≤ 0.2
167 | SHST | ≤ 0.2
168 | QMAD | ≤ 0.2
169 | KVNL | ≤ 0.2
170 | SIPL | ≤ 0.2
171 | HGKA | ≤ 0.2
172 | LWKY | ≤ 0.2
173 | CSWR | ≤ 0.2
174 | EIQS | ≤ 0.2
175 | QWRH | ≤ 0.2

Row | Variant | one-hybrid fitness for binding parS DNA
176 | TISG | ≤ 0.2
177 | SMAS | ≤ 0.2
178 | QDTW | ≤ 0.2
179 | AHHA | ≤ 0.2
180 | CYRN | ≤ 0.2
181 | FPVI | ≤ 0.2
182 | VQVR | ≤ 0.2
183 | PGWG | ≤ 0.2
184 | HPVA | ≤ 0.2
185 | KAYY | ≤ 0.2
186 | TNTA | ≤ 0.2
187 | MSSI | ≤ 0.2
188 | TVLW | ≤ 0.2
189 | YNIG | ≤ 0.2
190 | FETE | ≤ 0.2
191 | GRCS | ≤ 0.2
192 | RGAH | ≤ 0.2
193 | GRPC | ≤ 0.2
194 | QVKV | ≤ 0.2
195 | ILSL | ≤ 0.2
